Experimental data as given in PubChem BioAssay AID652106 (National Center for Advancing Translational Sciences (NCATS), 2013).
Among all 370,000 compounds or so, about 500 (0.14%) were called active. Inconclusive results, whose numbers are uncertain, are shown with a selection of clear calls. The call rests on the fitted dose curve; in most records, active means well fitted activation curve with a large enough effect; inconclusive means small, poorly fitted or top-dose-only effect; inactive means no such curve, though single readings can be large or run the other way. No potency is given beside an inconclusive call; the fits are too rough.

Assay: qHTS of alpha-syn Inhibitors; further: nearly all actives have a fitted effect of over 65% in size; on growth rescue (activation): % of control where 0% means no effect
Conditions: Yeast expressing alpha-synuclein, BacTiter-Glo, 24 h; Potency: growth rescue unless noted; growth rescue (activation): at 46.1 µM (top of the series) unless noted
In short: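 Screening used galactose-induced yeast with toxic alpha-synuclein levels, exposed to compound for 24 hr at 30 deg C. Cell growth, read with BacTiter-Glo luminescence, gave the measured signal.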
Potency means the concentration at half of the fitted maximal effect; tags describe the fitted curve by direction and shape.

**Q.** Which “growth rescue (activation)” value does the source give for O=Nc1c(O)n(Cc2ccccc2)c2ccccc12 here?
**A.** inactive: 11.7%

**Q.** With COC(=O)c1sccc1NC(=O)C12CC3CC(CC(C3)C1)C2 as the compound, how does the Potency read?
**A.** inconclusive [activator, single point]

**Q.** For COC(=O)c1cccc(N2CCCC2=O)c1, which Potency is on record?
**A.** inconclusive [activator, single point]

**Q.** With O=S1(=O)CCOC[C@H](CC2CCCCC2)N1Cc1cccc(C(F)(F)F)c1 as the compound, how does the Potency read?
**A.** inconclusive [activator, partial curve]

**Q.** With CCCOc1ccc(F)cc1-c1cc(C(=O)Nc2ccc(C(C)C)cc2)[nH]n1 as the compound, how does the “growth rescue (activation)” value read?
**A.** inactive: -3.5%

**Q.** For O=C(/C=C/c1ccc(Cl)cc1Cl)N1CCN(c2ccccc2[N+](=O)[O-])CC1, which Potency is on record?
**A.** inconclusive [activator, single point]

**Q.** Which Potency does the source give for COc1cc2c(NC3CCN(C)CC3)nc(N3CCCN(C)CC3)nc2cc1OCC1CCCNC1 (configuration not stated) here?
**A.** inconclusive [activator, single point]

**Q.** Which “growth rescue (activation)” value does the source give for c1ccc(Cc2ccc(OCCN3CCOCC3)cc2)cc1 here?
**A.** inactive: 5.88%

**Q.** Which Potency does the source give for COC(=O)CC1COc2ccccc2N1S(=O)(=O)c1ccc(Br)cc1 (configuration not stated) here?
**A.** inconclusive [activator, single point]

**Q.** With CCn1c(SCC(=O)N2CCCC2)nc2c(c1=O)SC(C)C2 (configuration not stated) as the compound, how does the “growth rescue (activation)” value read?
**A.** inactive: 0.835%

**Q.** Which Potency does the source give for C=C1c2cccc(OC)c2O[C@H](C(=O)OCC)[C@@H]1CC(CC)CCCC (some centres not stated) here?
**A.** inconclusive [activator, single point]

**Q.** Which “growth rescue (activation)” value does the source give for CC(=O)Nc1cccc(-c2csc(Nc3ccc(C)cn3)n2)c1 here?
**A.** inactive: 0.866%

**Q.** Which Potency does the source give for CCS(=O)(=O)c1ccc(N=Nc2ccc(O)c3ncccc23)c(OC)c1 here?
**A.** inconclusive [activator, single point]

**Q.** For Cc1[nH]nc(-c2ccc(O)cc2O)c1Oc1ccccc1, which Potency is on record?
**A.** inconclusive [activator, single point]

**Q.** Which Potency does the source give for Cc1ccc(N(CC(O)Cn2c3ccccc3c3ccccc32)S(C)(=O)=O)cc1 (configuration not stated) here?
**A.** inconclusive [activator, single point]

**Q.** Which Potency does the source give for Cc1ccccc1NC1=C/C(=N\S(=O)(=O)c2cccs2)c2ccccc2C1=O here?
**A.** inconclusive [activator, single point]

**Q.** For CC1(Cc2ccc3c(c2)OCO3)C(=O)Nc2c(Cl)ccc(Cl)c21 (configuration not stated), which Potency is on record?
**A.** active: 22.4 µM

**Q.** With O=C(NC(=S)Nc1ccccc1Br)C1CCCCC1 as the compound, how does the “growth rescue (activation)” value read?
**A.** inactive: -23%

**Q.** Which Potency does the source give for Cc1cccc(CCNCc2c(C(=O)O)c(C)n(-c3ccccc3)c2C)c1 here?
**A.** inconclusive [activator, single point]

**Q.** With CC1(C(=O)NCc2ccc(C(F)(F)F)cc2)CCN1C1Cc2ccccc2C1 (configuration not stated) as the compound, how does the Potency read?
**A.** inconclusive [activator, single point]

**Q.** Which “growth rescue (activation)” value does the source give for CCOC(=O)N/N=C/c1cn(CCCOc2ccccc2)c2ccccc12 here?
**A.** inactive: 9.5%

**Q.** For COc1ccc(OCC(=O)Nc2ccccc2C(=O)NC2CC2)cc1, which Potency is on record?
**A.** inconclusive [activator, single point]

**Q.** With Oc1ccc2ccccc2c1CNc1ccc2ccccc2c1 as the compound, how does the Potency read?
**A.** inconclusive [activator, partial curve]

**Q.** With CC(=O)N1CCN(c2ccc(NC(=O)C(C)Oc3ccc(Cl)cc3Cl)cc2)CC1 (configuration not stated) as the compound, how does the “growth rescue (activation)” value read?
**A.** inactive: 3.03%

**Q.** For Cc1ccnc2ccc(-c3nc4ccccc4o3)cc12, which Potency is on record?
**A.** inconclusive [activator, single point]

**Q.** With COc1ccccc1CCNC(=O)C1CCC(=O)N(Cc2ccccc2OC)C1 (configuration not stated) as the compound, how does the “growth rescue (activation)” value read?
**A.** inactive: -1.83%

**Q.** With COc1cc2cc(C(c3nnnn3C(C)(C)C)N3CCc4ccccc43)c(=O)[nH]c2cc1OC (configuration not stated) as the compound, how does the “growth rescue (activation)” value read?
**A.** inactive: 9.93%

**Q.** For CCc1ccc2c(c1)NC(=O)C2(C)Cc1ccccc1 (configuration not stated), which Potency is on record?
**A.** inconclusive [activator, partial curve]

**Q.** Which “growth rescue (activation)” value does the source give for CCc1cc(OCCN(C)C)ccc1Cl here?
**A.** inactive: 6.28%

**Q.** Which Potency does the source give for CCCNC(=O)Nc1cc(C)on1 here?
**A.** inconclusive [activator, single point]

**Q.** With CCc1c(C)nc(SCC(=O)NNC(=O)Cc2ccc(OC)cc2)[nH]c1=O as the compound, how does the Potency read?
**A.** inconclusive [activator, single point]

**Q.** Which Potency does the source give for CN=Cc1c(NC)nc2c(C)cccn2c1=O here?
**A.** inconclusive [activator, single point]

**Q.** For Cc1cc(O)c(-c2cc(O)c(C)cc2O)cc1O, which Potency is on record?
**A.** inconclusive [activator, partial curve]

**Q.** For N#Cc1c(NC(=O)C2CC2)sc2c1CCCCC2, which “growth rescue (activation)” value is on record?
**A.** inactive: -6%

**Q.** With CCCCCC[C@@H]([C@@H](C)O)n1cnc2c(N)ncnc21 as the compound, how does the Potency read?
**A.** inconclusive [activator, single point]

**Q.** Which Potency does the source give for Cc1nn(C)c(Nc2ccc(Br)cc2)c1Br here?
**A.** inconclusive [activator, single point]

**Q.** Which Potency does the source give for Clc1ccc(-c2nnc(CSc3nnc(-c4cccs4)n3Cc3ccccc3)o2)cc1 here?
**A.** inconclusive [activator, single point]

**Q.** Which Potency does the source give for CC(C)NC(=NCc1ccc(Cl)cc1Cl)Nc1ccccc1 here?
**A.** inconclusive [activator, single point]

**Q.** Which Potency does the source give for C[N+](C)(C)CCCCCC[N+](C)(C)C here?
**A.** inconclusive [activator, single point]

**Q.** With Cc1ccc(C(=O)Nc2nc(-c3ccccc3)c(-c3ccccc3)o2)cc1 as the compound, how does the Potency read?
**A.** inconclusive [activator, single point]

**Q.** With O=C(NCc1ccc2c(c1)OCO2)c1nn(-c2ccccc2)c(=O)c2ccccc12 as the compound, how does the “growth rescue (activation)” value read?
**A.** inactive: 5.71%

**Q.** With N#Cc1ccc(OCC(=O)Nc2nc(-c3ccccn3)cs2)cc1 as the compound, how does the Potency read?
**A.** inconclusive [activator, single point]

**Q.** With CCOC(=O)c1cc(Cl)c2c(ccc3ccccc32)n1 as the compound, how does the Potency read?
**A.** inconclusive [activator, single point]

**Q.** With COC(=O)c1c(/N=C/N(C)C)sc2c1CCN(c1ncc(C(F)(F)F)cc1Cl)C2 as the compound, how does the “growth rescue (activation)” value read?
**A.** inactive: -0.037%

**Q.** For COc1ccc(C(=O)/C=C/Nc2ccc(S(=O)(=O)Nc3cc(OC)nc(OC)n3)cc2)c(OC)c1, which Potency is on record?
**A.** inconclusive [activator, single point]

**Q.** With CCOC(=O)C1(C)CCCN(C(=O)c2ccc3c(c2)CCO3)C1 (configuration not stated) as the compound, how does the Potency read?
**A.** inconclusive [activator, single point]

**Q.** With Cc1nn(-c2ccccc2)c(N2CCCC2)c1/C=N/NC(=S)Nc1ccccc1C(F)(F)F as the compound, how does the “growth rescue (activation)” value read?
**A.** inactive: 0.0714%
